The record followed here is paper PMC4336329 (PLoS ONE, 2015).

The whole screen tested about 310,000 compounds, of which about 14,000 (4.5%) showed an effect of 50% or more. Effects have a minus sign here. Some of the results follow.
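Note: peak tail current of the secondary pulse compared with the same well before compound.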

The target of this assay is human ether-à-go-go-related gene (hERG) potassium channel (human, UniProt Q12809). Briefly: primary screen, population patch clamp on CHO cells stably expressing hERG.
human ether-à-go-go-related gene (hERG) potassium channel, sequence (Q12809 whole entry, looked up): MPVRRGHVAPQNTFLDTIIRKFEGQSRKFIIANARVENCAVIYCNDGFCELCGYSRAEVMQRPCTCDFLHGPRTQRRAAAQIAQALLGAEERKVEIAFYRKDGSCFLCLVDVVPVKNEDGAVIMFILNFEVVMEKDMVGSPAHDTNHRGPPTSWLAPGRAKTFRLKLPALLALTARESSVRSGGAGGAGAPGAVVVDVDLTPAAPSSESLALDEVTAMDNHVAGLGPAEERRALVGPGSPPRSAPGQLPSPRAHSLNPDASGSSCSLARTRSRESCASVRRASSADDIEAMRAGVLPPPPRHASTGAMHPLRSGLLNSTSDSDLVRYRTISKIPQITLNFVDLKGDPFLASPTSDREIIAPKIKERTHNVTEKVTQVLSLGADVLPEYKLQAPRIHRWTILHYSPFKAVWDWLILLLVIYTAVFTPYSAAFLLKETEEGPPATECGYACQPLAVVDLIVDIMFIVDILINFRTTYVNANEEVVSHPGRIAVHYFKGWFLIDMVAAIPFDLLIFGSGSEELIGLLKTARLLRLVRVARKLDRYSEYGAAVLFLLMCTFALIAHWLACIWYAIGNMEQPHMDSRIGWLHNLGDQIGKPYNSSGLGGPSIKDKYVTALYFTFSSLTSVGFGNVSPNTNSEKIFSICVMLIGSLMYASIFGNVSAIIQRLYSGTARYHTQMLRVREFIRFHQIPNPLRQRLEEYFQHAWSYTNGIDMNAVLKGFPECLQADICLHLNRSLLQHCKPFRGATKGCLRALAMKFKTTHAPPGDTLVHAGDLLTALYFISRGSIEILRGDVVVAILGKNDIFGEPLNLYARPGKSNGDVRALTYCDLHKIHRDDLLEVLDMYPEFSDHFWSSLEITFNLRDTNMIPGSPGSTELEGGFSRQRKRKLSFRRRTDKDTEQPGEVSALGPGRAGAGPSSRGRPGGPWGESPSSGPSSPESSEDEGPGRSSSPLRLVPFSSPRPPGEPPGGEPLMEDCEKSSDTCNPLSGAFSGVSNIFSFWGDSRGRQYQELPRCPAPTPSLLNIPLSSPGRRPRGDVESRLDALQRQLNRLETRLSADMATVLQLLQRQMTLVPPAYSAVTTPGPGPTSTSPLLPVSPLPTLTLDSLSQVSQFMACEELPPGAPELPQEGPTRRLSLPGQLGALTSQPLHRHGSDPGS
For the molecule `Cc1ccc(-c2nc3ccccn3c2Nc2ccccc2)o1`, the “hERG current change (%, negative = inhibition) at 10uM” value amounted to 3.96%. Turning to `COC(=O)CCCC1=CC2=CC(=O)C(C)(OC(=O)c3cccs3)C(=O)C2=CN1CCCOC(C)C` (stereo not drawn), the “hERG current change (%, negative = inhibition) at 10uM” value is -7.16%.

For `O=C(Nc1ccc(S(=O)(=O)N2CCCC2)cc1)C1CCCN1C(=O)c1cccs1` (stereo not drawn), the “hERG current change (%, negative = inhibition) at 10uM” value amounted to 0.837%.

In the case of `Cc1ccc(NC(=S)NNC(=O)c2cccc([N+](=O)[O-])c2)cc1Cl`, the “hERG current change (%, negative = inhibition) at 10uM” value was 18.6%. In the case of `O=C(COC(=O)CC1CC2CCC1C2)Nc1ccc(Cl)c(S(=O)(=O)N2CCOCC2)c1` (stereo not drawn) it was -23.5%.

For `CCCn1c(C)cc(C(=O)COC(=O)CN=C2NS(=O)(=O)c3ccccc32)c1C`, the “hERG current change (%, negative = inhibition) at 10uM” value was 18.2%. Consider `CCc1ccc(N=Nc2ccc(O)c3[nH]cnc23)cc1.[Cl-]`, for which the “hERG current change (%, negative = inhibition) at 10uM” value was 10%. The value for `COCc1cc(C)nc(OC)c1C(N)=O` was 34.8%. As to `CCN(CC)c1ccc(C=Nc2cccnc2Cl)c(O)c1`, the “hERG current change (%, negative = inhibition) at 10uM” value turned out to be 7.57%.

On to `Nc1c(C(=O)NC2CCCC2)c2nc3ccccc3nc2n1/N=C/c1ccco1`, for which the “hERG current change (%, negative = inhibition) at 10uM” value is reported as -10.6%. In the case of `Cc1nnc(SCC(=O)N2N=C(c3ccc(Cl)cc3)CC2c2ccco2)[nH]c1=O` (stereo not drawn) it was 5%. In the case of `CCOC(=O)c1ccc(NS(=O)(=O)c2c(N)n(C)c(=O)n(C)c2=O)cc1` it was 11.5%; in that of `CCN1C(=NCc2ccco2)N[C@@H](c2cccc(F)c2)C(C(=O)OC)=C1C`, -18.2%. With `O=C(CCc1ccccc1)Nc1nc2n(n1)C(c1ccccc1)CC(=O)N2` (stereo not drawn), the “hERG current change (%, negative = inhibition) at 10uM” value was determined as 10.7%.

On to `Cc1cccc(C(=O)c2cccc(C)c2)c1`, for which the “hERG current change (%, negative = inhibition) at 10uM” value came to 0.61%. As for `CC(=O)Nc1ccc(NC(=O)C(c2ccccc2)c2ccccc2)cc1`, the “hERG current change (%, negative = inhibition) at 10uM” value was found to be 14.7%. On to `COC(=O)c1cc(OC)c(OC)cc1NCC(=O)Nc1cccc(C(F)(F)F)c1`, for which the “hERG current change (%, negative = inhibition) at 10uM” value came out at 13.8%. In the case of `CN(C)S(=O)(=O)N(CC(=O)N1CCN(c2ccccc2)CC1)c1ccccc1` it was -10.2%. As to `CC(/C=N\N1CCN(c2ccc(Cl)cc2)CC1)=C\c1ccccc1`, the “hERG current change (%, negative = inhibition) at 10uM” value was -1.69%. The value for `Cc1oncc1C(=O)NC1CCCCC1` was 13.6%; that for `CCOc1ccc2nc(NC(=O)CCn3cccc3)sc2c1` was -10.4%. In the case of `CC1CCCN(C(=O)c2cc(F)c(F)cc2Cl)C1` (stereo not drawn) it was -47.4%.

`O=C(CSc1ccccc1)N1CCC(N2CCC(C(=O)N3CCCC3)CC2)CC1`: the “hERG current change (%, negative = inhibition) at 10uM” value is recorded as -25.1%. In the case of `COc1ccc(C(CNC(=O)c2oc3ccc(OC)cc3c2C)N2CCCC2)cc1` (stereo not drawn) it was -67.5%; in that of `CCOc1cc(N2CCOCC2)c(OCC)cc1NC(C)C(=O)N1CCC(C)CC1` (stereo not drawn), 10.1%. The value for `O=C(CSCc1nc2c(nnn2Cc2ccc(F)cc2)c(=O)[nH]1)Nc1cccc(C(F)(F)F)c1` was 14.3%. In the case of `O=C1COc2ccc(S(=O)(=O)N3CCN(c4ccccc4)CC3)cc2N1` it was 12.8%. As to `C#CCOCCOCCOCCNc1nc(N2CCOCC2)nc(N2CCN(C(=O)[C@H](CCCCN)n3cc([C@@H](N)CO)nn3)CC2)n1.Cl`, the “hERG current change (%, negative = inhibition) at 10uM” value is listed as -6.57%. In the case of `COc1ccccc1N1CCN(S(=O)(=O)c2ccc3c(c2)NC(=O)C(C)S3)CC1` (stereo not drawn) it was -1.81%; in that of `Cc1csc(NC(=O)c2ccc(Br)s2)n1`, 1.62%; in that of `Cc1onc(-c2ccccc2)c1C(=O)OCC(=O)Nc1ccc(OC(F)(F)F)cc1`, -5.83%. As to `Cc1ccc2c(c1)C1CN(C)CCC1N2C(=O)c1ccccc1NS(=O)(=O)c1ccc(F)cc1` (stereo not drawn), the “hERG current change (%, negative = inhibition) at 10uM” value is recorded as -15.6%.

On to `CN(Cc1ccccc1)C(=S)NC(=O)C1CCCCC1`, for which the “hERG current change (%, negative = inhibition) at 10uM” value was found to be 8.05%. For `CC[C@@]12C(=O)N(c3cccc(F)c3)C(=O)N1[C@H](c1ccc(OC)cc1)[C@@H]1C(=O)N(C(C)(C)C)C(=O)[C@@H]12`, the “hERG current change (%, negative = inhibition) at 10uM” value is -8.29%.

Regarding `Cc1ccccc1-c1nnc(SCC(=O)Nc2ccc3c(c2)OCCO3)n1N`, the “hERG current change (%, negative = inhibition) at 10uM” value was 1.4%. The value for `COCCn1c(SCC(=O)Nc2ccc(Cl)c(S(=O)(=O)N(C)C)c2)nc2ccccc21` was -30.8%; that for `COc1ccccc1C1C=C(c2ccccc2)Nc2nnnn21` (stereo not drawn) was -1.14%; that for `O=C(c1cc2nc(C3CC3)cc(C(F)(F)F)n2n1)N1CCCC1` was -0.231%. The value for `COc1ccc(C)cc1-n1c(SCC(=O)Nc2cc(C)on2)nc2ccccc2c1=O` was 10%; that for `CCN(CC(=O)Nc1c(F)cccc1F)C(=O)CN1C(=O)c2ccccc2C1=O` was 2.29%; that for `OCCC1CN(Cc2cn[nH]c2C2CCCCC2)CCN1C1CCCC1` (stereo not drawn) was 0.0531%. The value for `O=C(COC(=O)C1CCN(S(=O)(=O)c2cc([N+](=O)[O-])ccc2Cl)CC1)Nc1ncc(Cl)cc1Cl` was -57.6%; that for `COc1ccc(-c2cc(C(F)F)n3ncc(C(=O)Nc4cnn(Cc5ccccc5)c4)c3n2)cc1` was -3.38%. Regarding `COc1ccc(CCOC(=O)c2ccc(N)c([N+](=O)[O-])c2)cc1`, the “hERG current change (%, negative = inhibition) at 10uM” value amounted to 27.1%. In the case of `COc1ccc(-c2ncc(CN3CCN(CCC(C)C)C(CCO)C3)cn2)cc1` (stereo not drawn) it was -43.4%.

Turning to `CC(C)[C@H](NC(=O)OCc1ccccc1)C(=O)OCC(=O)N1CCN(c2ccc(F)cc2)CC1`, the “hERG current change (%, negative = inhibition) at 10uM” value was -75.3%. Take `O=C(CN(Cc1ccccc1)C(=O)CCC(=O)Nc1ccccn1)NCc1ccc(F)cc1`: the “hERG current change (%, negative = inhibition) at 10uM” value is reported as -20.5%. In the case of `C[C@H](CO)NC(=O)[C@H](C)[C@H]1C[C@]1(C)[C@H](NC(=O)OCc1ccccc1)c1ccccc1` it was -3.55%; in that of `O=C(Nc1ccc(CSc2ccccc2)cc1)c1ccccc1`, 9.58%. The value for `C#CCOCCOCCOCCNc1nc(N2CCN(C(=O)CCCCCCCCCCNC(=O)[C@H]([C@@H](C)CC)n3cc(CCCCN=C(N)N)nn3)CC2)nc(N2CCN(C(=O)CCCCCCCCCCNC(=O)[C@H](CO)n3cc(CCCSC)nn3)CC2)n1` was 32.9%; that for `C=C1C[C@@H]2[C@H](CC[C@]3(C)C(=O)CC[C@@H]23)[C@@]2(C)C=CC(=O)C=C12` was -7.85%.

As to `COC(=O)C1=C(C)NC(=O)NC1C1CC=CCC1` (stereo not drawn), the “hERG current change (%, negative = inhibition) at 10uM” value is on record as 19.2%. `CCCN1CCC(=O)N([C@H](CSc2ccc(C)cc2)c2ccccc2)CC1`: the “hERG current change (%, negative = inhibition) at 10uM” value is reported as -76%.

As for `COc1ccc(-n2cnc3cc(NCc4ccccn4)ccc32)cc1`, the “hERG current change (%, negative = inhibition) at 10uM” value is given as -19.1%. The value for `COC(=O)C(NNc1ccccc1)(NC(=O)c1ccccc1F)C(F)(F)F` (stereo not drawn) was 8.03%; that for `CC(=O)c1ccc(NC(=O)/C(=C\c2cccs2)NC(=O)c2ccco2)cc1` was 17.9%; that for `COc1ccc(NC(=O)Cc2ccc(C)cc2)c([N+](=O)[O-])c1` was 9.04%. In the case of `CCCCCC(=O)NCC(C)NC(=O)CCCCC` (stereo not drawn) it was 4.47%. As to `Cc1cccc(OCCN2C(=O)C(=O)c3cccc(C)c32)c1`, the “hERG current change (%, negative = inhibition) at 10uM” value is 10.2%.

For the molecule `CCOC(=O)c1cn(-c2ccccc2CO)c2c(F)c(F)c(F)cc2c1=O`, the “hERG current change (%, negative = inhibition) at 10uM” value came to 26.5%. Regarding `CCCn1c(C2CCCN2c2nc(-c3ccc(C)cc3)cs2)nc2ccccc21` (stereo not drawn), the “hERG current change (%, negative = inhibition) at 10uM” value was determined as 11.3%. The value for `Cc1cccc(Nc2nc(N)c([N+](=O)[O-])c(N3CCCC(C)C3)n2)c1` (stereo not drawn) was 0.369%; that for `Nc1cc(=O)nc(SCC(=O)Nc2ccccc2Cl)n1-c1ccccc1` was 31.3%. For `COc1ccc(Cl)cc1N(CC(=O)N/N=C/c1ccc(OCC(N)=O)cc1)S(C)(=O)=O`, the “hERG current change (%, negative = inhibition) at 10uM” value worked out at 7.22%. In the case of `FC(F)(F)c1ccccc1Nc1nccs1` it was -16.1%; in that of `Cc1ccc(/C=C/c2nc3ccccc3c(=O)[nH]2)cc1`, 20.6%.

For `Cc1ccc(NC(=O)OCCNC(=O)c2ccncc2)cc1`, the “hERG current change (%, negative = inhibition) at 10uM” value was 8.86%. The value for `FC(F)(F)c1cccc(-n2cc(-c3ccccc3)[nH]c2=S)c1` was 14.5%. In the case of `CCOC(=O)C(C)Sc1nc2c(c(=O)[nH]c(=O)n2C)n1CCc1ccccc1` (stereo not drawn) it was -49.8%.

As for `CCn1c(SCc2cc(=O)[nH]c3ccccc23)nc2c1c(=O)n(C)c(=O)n2C`, the “hERG current change (%, negative = inhibition) at 10uM” value is listed as -19.9%. In the case of `Cc1nn(Cc2ccccc2)c(C)c1NC(=O)CSc1nc2sc3c(c2c(=O)n1C)CCC3` it was 0.966%. The value for `C=CCNc1nc(-c2ccccc2)c(C(=O)OCC)cc1C#N` was -16.6%. In the case of `COc1ccc(C(=O)NCC(=O)N2CCN(c3ccc(F)cc3)CC2)cc1`, the “hERG current change (%, negative = inhibition) at 10uM” value is -1.94%. As to `COc1c[nH]n(-c2ccccc2)c(=O)c1=O`, the “hERG current change (%, negative = inhibition) at 10uM” value amounted to 12.3%. The value for `Cc1c(NC(=O)c2cc(-c3ccc(Br)cc3)on2)c(=O)n(-c2ccccc2)n1C` was 3.07%; that for `COc1cc(OC)c(NC(=O)CCc2ccccc2)cc1Cl` was -5.18%; that for `O=C(O)CCc1c(C(=O)O)[nH]c2ccccc12` was 12.7%. In the case of `O=C(CN1C(=O)NC2(CCCC2)C1=O)Nc1ccccc1-c1ccccc1` it was 2.69%.

With `COCCCNC(=O)Cn1nc(-c2cccc(OC)c2)ccc1=O`, the “hERG current change (%, negative = inhibition) at 10uM” value was 6.99%. As for `O=C(Cc1ccccn1)c1ccccc1`, the “hERG current change (%, negative = inhibition) at 10uM” value is 30.3%. The value for `Cc1nn(CCC(=O)NNC(=S)NCC(C)C)c(C)c1Br` was 14%. In the case of `O=C(O)CCN1C(=O)/C(=C2\C(=O)N(Cc3ccccc3Cl)c3ccccc32)SC1=S` it was 12.8%; in that of `Cc1cc(C)n(C(=O)CSc2ccc(Cl)cc2)n1`, -9.36%.

For the molecule `CCC(Br)C(=O)Nc1ccc(OC)cc1` (stereo not drawn), the “hERG current change (%, negative = inhibition) at 10uM” value is 18.3%.
